Test results taken from ChEMBL document CHEMBL4888484, “Replenishing the malaria drug discovery pipeline: Screening and hit evaluation of the MMV Hit Generation Library 1 (HGL1) against asexual blood stage Plasmodium falciparum ,using a nano luciferase reporter read-out” (2022).
Hit rate of the full screen: of about 150,000 compounds, about 540 (0.36%) showed an effect of 50% or more. The list shows a part of the results.

Each compound was assayed on Plasmodium falciparum (assay: Primary screen in NF54 nanoGlo assay, in single point, at 2uM, 72h; a lower Z score goes with more inhibition). Conditions: timepoint 72 hour.
Format: functional, Erythrocyte
With `Cc1oc(-c2ccccc2)nc1CN1CCC[C@H](c2nnc(N)o2)C1` the “% Inhibition” value was -4% and the Z score was 0.7. With `COC(=O)c1ccc(N2CCN(C(=O)[C@]3(C)CCCCO3)CC2)cc1` the “% Inhibition” value was 17% and the Z score was -2.99. With `CCc1nc(CC)n(Cc2nc(C)c(C)s2)n1` the “% Inhibition” value was 2% and the Z score was -0.22. `CCCCc1nc(CN2CCC(CCC(=O)NCc3ccc(F)cc3)CC2)c[nH]1` was tested, and the “% Inhibition” value was -2% and the Z score was 0.34. In the case of `Cc1ccc(Cc2nc(N3CCCN(C(=O)Nc4ccc(F)cc4F)CC3)c3c(-c4cccnc4)noc3n2)cc1`, the “% Inhibition” value is reported as -8% and the Z score is reported as 0.9. In the case of `CCN(CCc1nc2ccccc2[nH]1)C(=O)NC1CCN(C(C)C)CC1`, the “% Inhibition” value is reported as -13% and the Z score is reported as 1.65. With `NC(=O)Cc1nc(C2(c3ccc(Cl)cc3)CCC2)n(CCO)n1` the “% Inhibition” value was -11% and the Z score was 1.45. With `Cc1ncc2n1CCC(C(=O)N1CCCC(CNC(=O)c3ccccc3)C1)C2` (stereo not drawn) the “% Inhibition” value was -8% and the Z score was 1.72. With `Cc1nc(CC(=O)N2CCC3(CCOCC3)C2)cs1` the “% Inhibition” value was -4% and the Z score was 0.49. For `FC(F)Cn1cc(CN2CCc3n[nH]c(C(F)F)c3C2)cn1`, the “% Inhibition” value was -8% and the Z score was 1.2. For `CCN(C(=O)NCCc1nc2ccccc2c(=O)[nH]1)[C@H]1CCS(=O)(=O)C1`, the “% Inhibition” value was 1% and the Z score was -0.16. In the case of `Cc1ccc2cc(CN3CCN(C(N)=O)CC3)c(=O)[nH]c2c1`, the “% Inhibition” value is reported as -8% and the Z score is reported as 0.97. For `COc1cccc2cc(C(=O)N3CCC(Oc4cc(C)n(C)c(=O)c4)CC3)oc12`, the “% Inhibition” value was 1% and the Z score was -0.19. In the case of `O=c1[nH]c(CN2CCCCCCC2)nc2ccccc12`, the “% Inhibition” value is reported as -7% and the Z score is reported as 1.09. For `O[C@@H]1CC[N+](Cc2ccccc2)(Cc2ccccc2)O1`, the “% Inhibition” value was -14% and the Z score was 1.38. In the case of `Cn1nc(C(=O)NCCN2CCCOC2=O)cc1-c1ccccc1`, the “% Inhibition” value is reported as -24% and the Z score is reported as 4.73. `O=C(CCc1ccccc1)Nc1ccc(-n2nn[nH]c2=O)cc1` was tested, and the “% Inhibition” value was 38% and the Z score was -1.49. For `Cc1cccc(NC(=O)[C@@H]2CCCCN2C(=O)OC(C)(C)C)c1C`, the “% Inhibition” value was 4% and the Z score was -0.63. For `Cc1c(C#N)c(-c2cccnc2)c(C)n1C`, the “% Inhibition” value was -3% and the Z score was 0.54. For `COc1ccc2c(c1)OC(C)(C)CN(C(=O)Nc1ccncn1)C2`, the “% Inhibition” value was 2% and the Z score was -0.16. `O=C(NCc1ccccc1Cl)c1csc(-c2ccnc(N3CCOCC3)c2)n1` was tested, and the “% Inhibition” value was 4% and the Z score was -0.65. In the case of `Cc1noc([C@@H]2CN(C(=O)C3CCCCC3)CCCN2CC(C)C)n1`, the “% Inhibition” value is reported as 0% and the Z score is reported as -0.04. In the case of `O=C(NCCN1CCOCC1)c1cc2c(ccc3ccccc32)o1`, the “% Inhibition” value is reported as -6% and the Z score is reported as 1.25. With `COc1ccc(OC)c2c1cc1n2CC(C)(C(=O)NC2CCCC2)N(CC(C)c2ccccc2)C1=O` (stereo not drawn) the “% Inhibition” value was 1% and the Z score was -0.12. With `COc1ccc(Cc2nnc(C3CCN(CC(=O)NCc4ccccc4)CC3)s2)cc1` the “% Inhibition” value was -14% and the Z score was 2.7. `CN(C)c1cccc(S(=O)(=O)NCC#N)c1` was tested, and the “% Inhibition” value was 9% and the Z score was -1.12. `CCc1ccc(-c2c(-c3ccccc3)ncn2CCN2CCC[C@H](CO)C2)o1` was tested, and the “% Inhibition” value was -2% and the Z score was 0.22. In the case of `CCc1nsc(N2CCCN(C)C[C@@H]2CC)n1`, the “% Inhibition” value is reported as -5% and the Z score is reported as 0.59. `CC(C)Cc1cc(CNCc2ccc(Cl)s2)on1` was tested, and the “% Inhibition” value was -1% and the Z score was 0.19. With `O=C(Nc1ccc2c(c1)C(O)=Nc1cccnc1O2)C1CCCCC1` the “% Inhibition” value was 25% and the Z score was -3.72. In the case of `CN(Cc1cnn(-c2ccccc2)n1)c1ncnc2[nH]ncc12`, the “% Inhibition” value is reported as 33% and the Z score is reported as -0.4. With `CC12CCC(C(=O)Nc3cccnc3)(C(=O)C1=O)C2(C)C` (stereo not drawn) the “% Inhibition” value was 0% and the Z score was 0. `CO[C@@H](C)c1ccc(-c2cc(C(=O)O)cc(S(=O)(=O)N3CCOCC3)c2)cc1` was tested, and the “% Inhibition” value was -17% and the Z score was 1.88. `C[C@]1(CNC(=O)c2cc(F)cc(Br)c2)CCC(=O)N1` was tested, and the “% Inhibition” value was 5% and the Z score was -0.72. `CN(C)C(=O)c1n[nH]c2c1CN(C(=O)c1cccc(Br)c1)CC2` was tested, and the “% Inhibition” value was 13% and the Z score was -2.03. In the case of `COc1cc(C(=O)N2CCO[C@H](C(=O)N3CCCC3)C2)cc(OC)c1OC`, the “% Inhibition” value is reported as -8% and the Z score is reported as 1.02. In the case of `NC(=O)CCOc1ccccc1NCc1cc2cc(F)ccc2o1`, the “% Inhibition” value is reported as 5% and the Z score is reported as -0.48. For `O=C(NCCC(c1ccccc1)c1ccccc1)c1cn(C[C@H]2CCCO2)nn1`, the “% Inhibition” value was -14% and the Z score was 1.8. For `CC(C)CN(Cc1cc(NC(=O)c2cccs2)ccc1N(C)C)C(=O)C(C)(C)C`, the “% Inhibition” value was 11% and the Z score was -2.14. `O=C(Cn1nc(N2CCCCCC2)c2ccccc2c1=O)Nc1ccc2c(c1)OCO2` was tested, and the “% Inhibition” value was -10% and the Z score was 1.5. With `CCn1cc(S(=O)(=O)N(C)[C@H](C)c2cccnc2)cn1` the “% Inhibition” value was -5% and the Z score was 0.76. With `O=C(NC[C@@]12CCC[C@@H]1OCC2)c1ccc2n[nH]c(=O)n2c1` the “% Inhibition” value was -7% and the Z score was 0.91. `Cc1ccc(CNC(=O)[C@@H]2CC=CCC2)cn1` was tested, and the “% Inhibition” value was -3% and the Z score was 0.5. For `C[C@@H](CN(C)CCO)NCCc1cccc(F)c1`, the “% Inhibition” value was -13% and the Z score was 1.19. `CCN1CCN(c2ncc(-c3cc(=O)[nH]c(N4CCN(c5ccc(Cl)cc5)CC4)n3)c(C)n2)CC1` was tested, and the “% Inhibition” value was -11% and the Z score was 1.68. For `FC1(F)CC(COc2nccs2)C1`, the “% Inhibition” value was 2% and the Z score was -0.37. With `O=c1c(CNc2ccccc2)cc2cccc3c2n1CCC3` the “% Inhibition” value was 5% and the Z score was -0.65. `Cn1cc(-c2nc3cc(F)c(F)cc3c(=O)[nH]2)ccc1=O` was tested, and the “% Inhibition” value was -12% and the Z score was 2.34. `CC(C)c1ccc(NC(=O)N2CCc3nc(N4CCN(C5CCCCC5)CC4)nc(N(C)C)c3C2)cc1` was tested, and the “% Inhibition” value was -2% and the Z score was 0.31. For `COC1C2CC3CN(C(=O)NCc4cnccc4C)C1C3C2` (stereo not drawn), the “% Inhibition” value was -2% and the Z score was 0.27. In the case of `CCC1CN(C(=O)c2cnn(C3CCCCC3)c2)CC1N(C)C` (stereo not drawn), the “% Inhibition” value is reported as -14% and the Z score is reported as 1.64. `CNC(=O)C1CCCC1NC(=O)N[C@H](C)c1ccc(Cl)cc1Cl` (stereo partly drawn) was tested, and the “% Inhibition” value was 0% and the Z score was -0.02. `Cc1nc(Nc2ccccc2)[nH]c(=O)c1CCc1ccccc1` was tested, and the “% Inhibition” value was 14% and the Z score was -1.7. For `CCOC(=O)[C@H]1CCCN(C(=O)c2cnc(-c3cccc(C)c3)nc2N(C)Cc2ccccc2)C1`, the “% Inhibition” value was -1% and the Z score was 0.13.
